# In article PMC7819943, “Rice protein-binding microarrays: a tool to detect cis-acting elements near promoter regions in rice”:
# The other results are listed elsewhere or left out.
# Target: T1, OsWOX13 (Oryza sativa, UniProt Q5QMM3 1-267)
# T1 sequence: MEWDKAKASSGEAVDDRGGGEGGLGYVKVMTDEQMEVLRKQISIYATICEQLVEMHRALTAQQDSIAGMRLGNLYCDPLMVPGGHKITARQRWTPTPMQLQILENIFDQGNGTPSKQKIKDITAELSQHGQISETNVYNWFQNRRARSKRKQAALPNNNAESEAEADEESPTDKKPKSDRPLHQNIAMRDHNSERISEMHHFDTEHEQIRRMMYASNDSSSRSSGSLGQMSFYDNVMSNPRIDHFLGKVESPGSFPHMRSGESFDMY
# Assay: protein-binding microarray (RPBM); PBS, 2% BSA, 51.3 ng/ul salmon testes DNA, 50 uM zinc acetate, 200 nM TF, 25 C, 1 h; high values mean tight binding
# Details: protein: recombinant; tags: N-terminal polyhistidine and DsRed monomer fusion (pET32a); label: CyDye5-dUTP incorporated in the synthesized complementary strand; 3' TTTTT single-stranded linker to array surface; dsDNA, one strand shown
# In short: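 Ni–NTA purification followed expression in E. coli BL21-CodonPlus of transcription factors fused N-terminally to a polyhistidine tag and DsRed. At 200 nM in PBS with 2% BSA, salmon testes DNA and 50 µM zinc acetate, the protein was incubated for 1 h at 25 °C with a custom Agilent array that had been primer-extended with Cy5-dUTP and blocked with 2% BSA. After washing, the array was read on an Axon 4000B scanner. The binding signal is per-feature fluorescence intensity in arbitrary units.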
row,Sequence,binding signal
1,CAGAAATTAATGGTCAAATTTAGTCTTAAAGTCATTTCTACGGAGTCACCTAGTGCAG,6670 fluorescence intensity (a.u.)
2,TCATAATTATTGTTTTGACTATAGCGTTTGGATATAGGTACGGAGTCACCTAGTGCAG,24400 fluorescence intensity (a.u.)
3,GTAGAGGGATTGAGATAGATGATGACAGAGAGGGTCGGACCGGAGTCACCTAGTGCAG,3430 fluorescence intensity (a.u.)
4,CTCGAGTCCACGCTCCCATCGCCCTCCGCCTCGCCTCGCTCGGAGTCACCTAGTGCAG,45900 fluorescence intensity (a.u.)
5,TCAAATTGTGACAGAGATGTGTGGTTTTGTTACCATCCTTCGGAGTCACCTAGTGCAG,18200 fluorescence intensity (a.u.)
6,TTAATGATTTAAACTCAATTATTTATATATTAATAGCTCTCGGAGTCACCTAGTGCAG,38300 fluorescence intensity (a.u.)
7,TGCAAATAGATAAATACCATGTGTTTCATTTTACATTGTTCGGAGTCACCTAGTGCAG,4780 fluorescence intensity (a.u.)
8,TCGGCGGATTGACAGGTGGAAAAGGCTGACTTCAAGTTTTCGGAGTCACCTAGTGCAG,30200 fluorescence intensity (a.u.)
9,AGTAATTATTTAAATAATAAATTAATCATTAAATGATCTTCGGAGTCACCTAGTGCAG,27600 fluorescence intensity (a.u.)
10,CAAAGATTAGGTTCAAATTTATACTATGTTTTAACTAGGGCGGAGTCACCTAGTGCAG,17100 fluorescence intensity (a.u.)
11,ATGTTTACAGAGTGATTTAATCATCATGATATATCTTGTTCGGAGTCACCTAGTGCAG,8940 fluorescence intensity (a.u.)
12,AACAAATTACAGATTCCACCTATAAACTGCGAGACGGATTCGGAGTCACCTAGTGCAG,14700 fluorescence intensity (a.u.)
13,TGGTCTAATAAAATAATTAAAGATCTGATTTTCTACTCCTCGGAGTCACCTAGTGCAG,4320 fluorescence intensity (a.u.)
14,ATTTGATTATAATGAATCCAACTACATAATTTATTCATAGCGGAGTCACCTAGTGCAG,35600 fluorescence intensity (a.u.)
15,TGTTGTGATTTGAGAATGATTATGTTGTTGTGGATGATTTCGGAGTCACCTAGTGCAG,40100 fluorescence intensity (a.u.)
16,CAACTGATAATTGCAAGAACTGATTAGTGCACAGTGGATTCGGAGTCACCTAGTGCAG,28000 fluorescence intensity (a.u.)
17,CTTAATTAGGATTCACAGCTCTTAAACGAAGAAGTAGTACCGGAGTCACCTAGTGCAG,35300 fluorescence intensity (a.u.)
18,ATTAAACAAAGTGCAAATGATTGACTAATAAGAGCCCAATCGGAGTCACCTAGTGCAG,23300 fluorescence intensity (a.u.)
19,GGGTGTGTAAGGGTAGGTGGAGGGGTGGGTGATGCGAGATCGGAGTCACCTAGTGCAG,4470 fluorescence intensity (a.u.)
20,GTTGGCCTATTTGGAAAGGCTCTTCCCTTGCTGTGTCATCCGGAGTCACCTAGTGCAG,10100 fluorescence intensity (a.u.)
21,TTGATGTGATGGAAAAGCTAGAAGTTTCAAGAGAAAGTTGCGGAGTCACCTAGTGCAG,11000 fluorescence intensity (a.u.)

row,Sequence,binding signal
1,ACTTAATTAATTACGTGTTAATGGACTGCTCCGTTTTCCGCGGAGTCACCTAGTGCAG,65500 fluorescence intensity (a.u.)
2,GAAATTAATTTTAATAGTGTTTTCATATTATTTCCATGCGCGGAGTCACCTAGTGCAG,46500 fluorescence intensity (a.u.)
3,AGAGGCATGATTGCTCGTTATTTGTTGTTATTCAACAAGGCGGAGTCACCTAGTGCAG,29000 fluorescence intensity (a.u.)
4,TTTCTTACTAAATAAATAATTGCAACGCACTGATATTTTGCGGAGTCACCTAGTGCAG,3230 fluorescence intensity (a.u.)
5,GCCCAATTATTACTCCTCCACTACTACTCCTCCACCCGCGCGGAGTCACCTAGTGCAG,5920 fluorescence intensity (a.u.)
6,CTTGTTGTAATGGGAAACGTGATTACAGATAGCGGGCCCACGGAGTCACCTAGTGCAG,10300 fluorescence intensity (a.u.)
7,CTTAACGGCCCATTTATCTTGTCTCTCTGGCCCACCTGCACGGAGTCACCTAGTGCAG,4020 fluorescence intensity (a.u.)
8,GGGGAGGATTGGAACTTTGCTACTTTCCAAATTTCCCCTTCGGAGTCACCTAGTGCAG,4740 fluorescence intensity (a.u.)
9,CTTGATAATTACTCTTACGTCCCTCACCCTATGTTCCTGTCGGAGTCACCTAGTGCAG,24100 fluorescence intensity (a.u.)
10,GGGATTGAAATCCTCCAGTTTTCCCACAAATTTCGTACAACGGAGTCACCTAGTGCAG,18600 fluorescence intensity (a.u.)
11,CTAACCAAGATTAATTTCTATTGGTACAATGGCATGTAATCGGAGTCACCTAGTGCAG,4210 fluorescence intensity (a.u.)
12,GGCTTCCTTAATTGTACATGTCTCTCTTCATTCTGCTGCACGGAGTCACCTAGTGCAG,5930 fluorescence intensity (a.u.)
13,ATAGATTTAGAAATAAGTGTTGACATAAACATTTAGGTATCGGAGTCACCTAGTGCAG,4640 fluorescence intensity (a.u.)
14,ATTTTACATTTTCTGATTGCTTTACTCGGCCATCACATGGCGGAGTCACCTAGTGCAG,23100 fluorescence intensity (a.u.)
15,GGAGATAATGGACTGTTCATCATTTCATTGCTATGAAGGGCGGAGTCACCTAGTGCAG,17400 fluorescence intensity (a.u.)
16,CAAAATGACAATAATTTGTATGTAAGCAGAAGACAGAAAGCGGAGTCACCTAGTGCAG,22200 fluorescence intensity (a.u.)
17,TATTAATACTCAATTAATCATGCGCTAATGAATCGCTCCTCGGAGTCACCTAGTGCAG,19300 fluorescence intensity (a.u.)
18,TCATAGCAATTAAAATTAACACCATATTTGTTCCGGAGAACGGAGTCACCTAGTGCAG,4500 fluorescence intensity (a.u.)
19,TCCGTGTGATACTATCAAATTAGATTAGAAACACAGCGTGCGGAGTCACCTAGTGCAG,8520 fluorescence intensity (a.u.)
20,CTTCAAATTATCTATATTTAATTTAATAACACATTTATATCGGAGTCACCTAGTGCAG,18900 fluorescence intensity (a.u.)
21,TTGCTTGACATGAAATCAAGTACACTTGCAAAGCACACACCGGAGTCACCTAGTGCAG,4290 fluorescence intensity (a.u.)
